# Test results published in the supplement of paper PMC8728848.
# This is one part of the list.
# Key:
# Assay in all cases: glycan array binding signal (z-score within array); higher = stronger binding
# Conditions in all cases: glycan notation: IUPAC condensed, linker removed
# [1] = biological target: Gal(b1-3)[Fuc(a1-4)]GlcNAc(b1-3)Gal(b1-4)[Fuc(a1-3)]GlcNAc
# How it was run: (§1)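 From the Consortium for Functional Glycomics database, 3228 arrays were curated, keeping only those whose protein sequence was available. Binding is given as a within-array Z-score averaged across arrays sharing a protein sequence and across linkers. Negative Z-scores can be read as non-binding.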
# [2] = biological target: Gal(b1-3)[GlcNAc(b1-6)]GalNAc
# How it was run: as §1
# [3] = biological target: Gal(b1-3)[Neu5Ac(a2-6)]GalNAc
# How it was run: as §1
# [4] = biological target: Gal(b1-3)[Neu5Ac(a2-6)]GlcNAc(b1-6)Gal(b1-4)Glc
# How it was run: as §1
# [5] = biological target: Gal(b1-3)[Neu5Ac(b2-6)]GalNAc
# How it was run: as §1
# [6] = biological target: Gal(b1-4)GalNAc(a1-3)[Fuc(a1-2)]Gal(b1-4)GlcNAc
# How it was run: as §1
# [7] = biological target: Gal(b1-4)GalNAc(b1-3)[Fuc(a1-2)]Gal(b1-4)GlcNAc
# How it was run: as §1
# Gal(b1-4)Glc = biological target: Gal(b1-4)Glc
# How it was run: as §1
# Gal(b1-4)Glc6S = biological target: Gal(b1-4)Glc6S
# How it was run: as §1
# Gal(b1-4)GlcNAc = biological target: Gal(b1-4)GlcNAc
# How it was run: as §1
# [8] = biological target: Gal(b1-4)GlcNAc(a1-6)Gal(b1-4)GlcNAc
# How it was run: as §1
# [9] = biological target: Gal(b1-4)GlcNAc(b1-2)Man(a1-3)[Gal(b1-4)GlcNAc(b1-2)Man(a1-6)]Man(b1-4)GlcNAc(b1-4)GlcNAc
# How it was run: as §1
# [10] = biological target: Gal(b1-4)GlcNAc(b1-3)Gal(b1-3)GlcNAc
# How it was run: as §1
# [11] = biological target: Gal(b1-4)GlcNAc(b1-3)Gal(b1-4)Glc
# How it was run: as §1
# [12] = biological target: Gal(b1-4)GlcNAc(b1-3)Gal(b1-4)GlcNAc
# How it was run: as §1
# [13] = biological target: Gal(b1-4)GlcNAc(b1-3)Gal(b1-4)GlcNAc(b1-3)Gal(b1-4)GlcNAc
# How it was run: as §1
# [14] = biological target: Gal(b1-4)GlcNAc(b1-3)Gal(b1-4)[Fuc(a1-3)]GlcNAc(b1-3)Gal(b1-4)[Fuc(a1-3)]GlcNAc
# How it was run: as §1
# [15] = biological target: Gal(b1-4)GlcNAc(b1-3)GalNAc
# How it was run: as §1
# [16] = biological target: Gal(b1-4)GlcNAc(b1-3)[Gal(b1-4)GlcNAc(b1-6)]Gal(b1-4)GlcNAc
# How it was run: as §1
# [17] = biological target: Gal(b1-4)GlcNAc(b1-3)[GlcNAc(b1-6)]Gal(b1-4)GlcNAc
# How it was run: as §1
# [18] = biological target: Gal(b1-4)GlcNAc(b1-6)Gal(b1-4)GlcNAc
# How it was run: as §1
# [19] = biological target: Gal(b1-4)GlcNAc(b1-6)Gal(b1-4)GlcNAc(b1-6)GalNAc
# How it was run: as §1
# [20] = biological target: Gal(b1-4)GlcNAc(b1-6)GalNAc
# How it was run: as §1
# [21] = biological target: Gal(b1-4)GlcNAc(b1-6)[Gal(b1-3)]GalNAc
# How it was run: as §1
# Gal3S(b1-3)GalNAc = biological target: Gal3S(b1-3)GalNAc
# How it was run: as §1
# Gal3S(b1-3)GlcNAc = biological target: Gal3S(b1-3)GlcNAc
# How it was run: as §1
# [22] = biological target: Gal3S(b1-3)[Fuc(a1-4)]GlcNAc
# How it was run: as §1
# Gal3S(b1-4)Glc = biological target: Gal3S(b1-4)Glc
# How it was run: as §1
# Gal3S(b1-4)Glc6S = biological target: Gal3S(b1-4)Glc6S
# How it was run: as §1
# Gal3S(b1-4)GlcNAc = biological target: Gal3S(b1-4)GlcNAc
# How it was run: as §1
# Gal3S(b1-4)GlcNAc6S = biological target: Gal3S(b1-4)GlcNAc6S
# How it was run: as §1
# [23] = biological target: Gal3S(b1-4)[Fuc(a1-3)]Glc
# How it was run: as §1
# Gal3S4S(b1-4)GlcNAc = biological target: Gal3S4S(b1-4)GlcNAc
# How it was run: as §1
# Gal3S6S(b1-4)GlcNAc = biological target: Gal3S6S(b1-4)GlcNAc
# How it was run: as §1
# Gal3S6S(b1-4)GlcNAc6S = biological target: Gal3S6S(b1-4)GlcNAc6S
# How it was run: as §1
# Gal4S(b1-4)GlcNAc = biological target: Gal4S(b1-4)GlcNAc
# How it was run: as §1
# Gal4S6S(b1-4)GlcNAc = biological target: Gal4S6S(b1-4)GlcNAc
# How it was run: as §1
# Gal6S(b1-4)Glc = biological target: Gal6S(b1-4)Glc
# How it was run: as §1
# Gal6S(b1-4)Glc6S = biological target: Gal6S(b1-4)Glc6S
# How it was run: as §1
# Gal6S(b1-4)GlcNAc = biological target: Gal6S(b1-4)GlcNAc
# How it was run: as §1
# Gal6S(b1-4)GlcNAc6S = biological target: Gal6S(b1-4)GlcNAc6S
# How it was run: as §1
# GalNAc(a1-3)Gal = biological target: GalNAc(a1-3)Gal
# How it was run: as §1
# GalNAc(a1-3)GalNAc = biological target: GalNAc(a1-3)GalNAc
# How it was run: as §1
# GalNAc(b1-3)Gal = biological target: GalNAc(b1-3)Gal
# How it was run: as §1
# [24] = biological target: GalNAc(b1-3)Gal(a1-4)Gal(b1-4)GlcNAc
# How it was run: as §1
binder,measurement,setting,value
"SLR2P3F12 (Tachypleus tridentatus), TAL2_TACTR (protein) MEKGTPPTHDSDNWMGRAKKIGNGGWNQFQFLFFDPNGYLYAVSKDKLYKASPPQSDTDNWIARATEIGSGGWSGFKSLFFHPNGYLYAVHGQRLYKALPPVSNQD",glycan array binding signal (z-score),[1],-0.332
same,glycan array binding signal (z-score),[2],0.247
same,glycan array binding signal (z-score),[3],-0.362
same,glycan array binding signal (z-score),[4],0.693
same,glycan array binding signal (z-score),[5],-0.369
same,glycan array binding signal (z-score),[6],-0.208
same,glycan array binding signal (z-score),[7],-0.24
same,glycan array binding signal (z-score),Gal(b1-4)Glc,2.75
same,glycan array binding signal (z-score),Gal(b1-4)Glc6S,-0.248
same,glycan array binding signal (z-score),Gal(b1-4)GlcNAc,-0.208
same,glycan array binding signal (z-score),[8],-0.379
same,glycan array binding signal (z-score),[9],-0.213
same,glycan array binding signal (z-score),[10],-0.433
same,glycan array binding signal (z-score),[11],-0.261
same,glycan array binding signal (z-score),[12],-0.175
same,glycan array binding signal (z-score),[13],-0.342
same,glycan array binding signal (z-score),[14],0.091
same,glycan array binding signal (z-score),[15],-0.337
same,glycan array binding signal (z-score),[16],-0.434
same,glycan array binding signal (z-score),[17],-0.423
same,glycan array binding signal (z-score),[18],-0.406
same,glycan array binding signal (z-score),[19],-0.18
same,glycan array binding signal (z-score),[20],-0.561
same,glycan array binding signal (z-score),[21],-0.32
same,glycan array binding signal (z-score),Gal3S(b1-3)GalNAc,0.134
same,glycan array binding signal (z-score),Gal3S(b1-3)GlcNAc,-0.612
same,glycan array binding signal (z-score),[22],1.21
same,glycan array binding signal (z-score),Gal3S(b1-4)Glc,-0.387
same,glycan array binding signal (z-score),Gal3S(b1-4)Glc6S,0.365
same,glycan array binding signal (z-score),Gal3S(b1-4)GlcNAc,-0.459
same,glycan array binding signal (z-score),Gal3S(b1-4)GlcNAc6S,-0.207
same,glycan array binding signal (z-score),[23],-0.244
same,glycan array binding signal (z-score),Gal3S4S(b1-4)GlcNAc,-0.321
same,glycan array binding signal (z-score),Gal3S6S(b1-4)GlcNAc,0.076
same,glycan array binding signal (z-score),Gal3S6S(b1-4)GlcNAc6S,-0.418
same,glycan array binding signal (z-score),Gal4S(b1-4)GlcNAc,-0.445
same,glycan array binding signal (z-score),Gal4S6S(b1-4)GlcNAc,-0.057
same,glycan array binding signal (z-score),Gal6S(b1-4)Glc,-0.13
same,glycan array binding signal (z-score),Gal6S(b1-4)Glc6S,-0.145
same,glycan array binding signal (z-score),Gal6S(b1-4)GlcNAc,0.159
same,glycan array binding signal (z-score),Gal6S(b1-4)GlcNAc6S,-0.455
same,glycan array binding signal (z-score),GalNAc(a1-3)Gal,0.76
same,glycan array binding signal (z-score),GalNAc(a1-3)GalNAc,-0.138
same,glycan array binding signal (z-score),GalNAc(b1-3)Gal,-0.359
same,glycan array binding signal (z-score),[24],-0.295
